Measurements: PubChem BioAssay AID2147 (National Center for Advancing Translational Sciences (NCATS), 2009)
Among all 230,000 compounds or so, about 3,600 (1.6%) were called active. Inconclusive results, whose numbers are uncertain, are shown with a selection of clear calls. The call rests on the fitted dose curve; in most records, active means well fitted inhibition curve with a large enough effect (not every such curve was filed as active); inconclusive means small, poorly fitted or top-dose-only effect, or another doubt; inactive means no such curve, though single readings can be large or run the other way. Potencies of inconclusive entries are doubtful fits and often do not repeat.

Target: Lysine-specific demethylase 4E (Homo sapiens) (UniProt B2RXH2)
Chain of UniProt B2RXH2 (B2RXH2 whole entry, looked up, the tested form may be a part): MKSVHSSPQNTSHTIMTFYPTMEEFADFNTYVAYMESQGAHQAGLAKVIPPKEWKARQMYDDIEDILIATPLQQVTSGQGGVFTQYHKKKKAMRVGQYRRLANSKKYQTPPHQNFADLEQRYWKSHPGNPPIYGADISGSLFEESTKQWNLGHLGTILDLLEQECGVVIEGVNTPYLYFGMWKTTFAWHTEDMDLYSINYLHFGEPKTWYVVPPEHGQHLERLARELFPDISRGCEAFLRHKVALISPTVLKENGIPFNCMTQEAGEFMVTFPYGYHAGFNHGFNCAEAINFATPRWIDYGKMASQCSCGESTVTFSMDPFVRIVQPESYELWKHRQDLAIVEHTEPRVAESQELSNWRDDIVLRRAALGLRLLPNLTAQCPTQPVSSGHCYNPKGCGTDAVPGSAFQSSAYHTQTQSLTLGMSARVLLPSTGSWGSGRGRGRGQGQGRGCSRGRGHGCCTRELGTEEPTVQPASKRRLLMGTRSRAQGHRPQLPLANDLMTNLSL
Assay: qHTS Assay for Inhibitors of Human Jumonji Domain Containing 2E (JMJD2E)
Conditions: JMJD2E catalytic domain, FDH-coupled NADH fluorescence (FDH is formaldehyde dehydrogenase); series mostly up to 57.1 µM; activity change, negative = inhibition: at the top concentration
Further: nearly all actives have a fitted effect of over 50% in size.
Potency means the concentration at half of the fitted maximal effect; tags describe the fitted curve by direction and shape.
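Wherever activity change, negative = inhibition is given: 0% = wells with enzyme and -100% = buffer wells without enzyme.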

Row | Compound | Potency | activity change, negative = inhibition
1 | COC(=O)Cn1ncc2c3ccccc3n(C)c2c1=O | inconclusive: 28.2 µM [inhibitor, partial curve] | –
2 | CCCOC(=O)c1c(NC(=O)c2cnn3c2NC(c2ccccc2)CC3C(F)(F)F)sc2c1CCCC2 (stereo not given) | inconclusive: 2.51 µM [inhibitor, partial curve] | –
3 | Cc1ccsc1C(=O)Nc1nnc(-c2ccco2)o1 | inconclusive: 39.8 µM [inhibitor, single point] | –
4 | Cn1cc(Br)c(C(=O)N/N=C/c2cccc(OC3CSC3)c2)n1 | – | inactive: -5.21%
5 | O=C(Nc1ccc(Cl)cc1)c1ccc2nsnc2c1 | inconclusive: 39.8 µM [inhibitor, single point] | –
6 | CC(C)c1cc(-c2cc(-c3ccc(Cl)cc3)on2)nc(NCC2CC2)n1 | inconclusive: 28.2 µM [inhibitor, single point] | –
7 | CCOC(=O)C1CCN(c2c(N3CCN(c4ccccc4OC)CC3)c(=O)c2=O)CC1 | – | inactive: 5.31%
8 | CCN(CC)c1ccc2cc(C(=O)Nc3ccccn3)c(=O)oc2c1 | active: 4.47 µM | –
9 | O=C(NCc1n[nH]c(=S)n1-c1ccc(Br)cc1)c1cccs1 | – | inactive: -7.42%
10 | Cc1ccc(-n2c(C)cc(-c3csc(N)n3)c2C)cc1 | – | inactive: 1.12%
11 | CCOc1cccc2cc(C(=O)N3CCc4ccccc4C3)c(=O)oc12 | inconclusive: 39.8 µM [inhibitor, single point] | –
12 | COC(=O)C1=C(C)NC(=O)/C1=C\c1cc(C)n(-c2ccccc2F)c1C | inconclusive: 28.2 µM [inhibitor, single point] | –
13 | C=CCNCCOCCOc1ccc(C)cc1Br | inconclusive: 39.8 µM [inhibitor, single point] | –
14 | C/C=C/c1ccc(OCC(=O)O)c(OC)c1 | – | inactive: -7.62%
15 | CCCCN(C)C(=O)CCC(=O)Nc1ccc2nc(N3CCOCC3)cc(C)c2c1 | inconclusive: 31.6 µM [inhibitor, partial curve] | –
16 | CCOC(=O)N1CCN(C(=O)c2ccc3c(=O)n(-c4ccccc4F)c(=S)[nH]c3c2)CC1 | inconclusive: 35.5 µM [inhibitor, single point] | –
17 | CCn1c(=NC(=O)C2COc3ccccc3O2)sc2c(C)ccc(OC)c21 (stereo not given) | inconclusive: 35.5 µM [inhibitor, single point] | –
18 | CCC(=O)Nc1nnc(-c2ccc(Cl)s2)o1 | inconclusive: 31.6 µM [inhibitor, single point] | –
19 | CCOC(=O)c1c(-c2ccccc2)cn2ccccc12 | inconclusive: 31.6 µM [inhibitor, partial curve] | –
20 | CCOc1ccc(C(=O)NC(=S)N2CCN(c3ccc(C(F)(F)F)cc3[N+](=O)[O-])CC2)cc1 | – | inactive: -1.81%
